Laboratory results from patent US20250075006A1.

Target: cynomolgus monkey GUCY2C protein, full length, on CHO cells (cynomolgus monkey)
Assay: FACS on CHO-cyno GUCY2C cells, MFI

EC50 (read off the curve) [nM] | Binder
1 | hu-Lab306H4-huFc (Fc fusion) EVQLVESGGGLVQPGGSLRLSCAASGFTLDDYAIGWFRQAPGKEREGVICLTSGGLPKYADSVKGRFTISRDNSKNTLYLQMNSLRAEDTAVYYCAASGATSRWNCPPQYDHWGQGTMVTVSS[human IgG1 Fc with C220S (EU numbers) not listed]
1 | hu-Lab306H5-huFc (Fc fusion) EVQLVESGGGLVQPGGSLRLSCATSGFTLDDYAIGWFRQAPGKEREGVICLTSGGLPKYADSVKGRFTISRDNSKNTLYLQMNSLRAEDTAVYYCAASGATSRWNCPPQYDHWGQGTMVTVSS[human IgG1 Fc with C220S (EU numbers) not listed]
1 | hu-Lab306H6-huFc (Fc fusion) EVQLVESGGGLVQPGGSLRLSCAASGFTLDDYAIGWFRQAPGKEREGVICLTSGGLPKYADSVKGRFTISRDNAKNTLYLQMNSLRAEDTAVYYCAASGATSRWNCPPQYDHWGQGTMVTVSS[human IgG1 Fc with C220S (EU numbers) not listed]
1 | hu-Lab306H7-huFc (Fc fusion) EVQLVESGGGLVQPGGSLRLSCAASGFTLDDYAIGWFRQAPGKEREGVICLTSGGLPKYADSVKGRFTISRDNSKNTLYLRMNSLRAEDTAVYYCAASGATSRWNCPPQYDHWGQGTMVTVSS[human IgG1 Fc with C220S (EU numbers) not listed]
0.2 | hu-Lab322H3-huFc (Fc fusion) EVQLVESGGGLVQPGRSLRLSCAASVLNLDYYAITWFRQAPGKEREGVSCIQGRGTSTNYADSVKGRFTISRDRAKKSAYLQMNSLRAEDTALYYCAVRYVSYGRNTACGLLPESVDHWGQGTMVTVSS[human IgG1 Fc with C220S (EU numbers) not listed]
0.2 | hu-Lab322H4-huFc (Fc fusion) QLQLVESGGGLVQPGRSLRLSCAASVLNLDYYAITWFRQAPGKEREGVSCIQGRGTSTNYADSVKGRFTISRDRAKKSAYLQMNSLRAEDTALYYCAVRYVSYGRNTACGLLPESVDHWGQGTMVTVSS[human IgG1 Fc with C220S (EU numbers) not listed]
0.2 | hu-Lab322H5-huFc (Fc fusion) EVQLVESGGGLVQPGRSLRLSCAASVLNLDYYAITWFRQAPGKEREGVSCIQGRGTSTNYADSVKGRFTISRDRAKKSAYLQMNSLRAEDTATYYCAVRYVSYGRNTACGLLPESVDHWGQGTQVTVSS[human IgG1 Fc with C220S (EU numbers) not listed]
0.2 | hu-Lab322H6-huFc (Fc fusion) EVQLVESGGGLVQPGRSLRLSCAASVLNLDYYAITWFRQAPGKEREGVSCIQGRGTSTNYADSVKGRFTISRDRAKKSAYLQMNSLKPEDTALYYCAVRYVSYGRNTACGLLPESVDHWGQGTMVTVSS[human IgG1 Fc with C220S (EU numbers) not listed]
